Data from PubChem BioAssay AID652104 (National Center for Advancing Translational Sciences (NCATS), 2013).
Values joined by “and” are separate entries in the source; they are usually repeats but may differ in a detail not shown here. Identical values can stand only once. In all, about 410,000 compounds went through this assay and about 7,200 (1.8%) were called active. Inconclusive means that the source gave no clear call. Such entries were picked first, then a sample of the others. Calls come from the whole dose curve; as a rule, active = well fitted activation curve with a large enough effect; inconclusive = small, poorly fitted or top-dose-only effect, or another doubt; inactive = no such curve, though single readings can be large or run the other way. Potencies of inconclusive entries are doubtful fits and often do not repeat.

assay: qHTS of TDP-43 Inhibitors; settings: TDP-43 expressing yeast growth rescue, BacTiter-Glo, 24 h; growth rescue (activation): at 46.1 µM (top of the series) unless noted; note: nearly all actives have a fitted effect of over 50% in size; for growth rescue (activation): % of control where 0% means no effect
In short: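 Readout is BacTiter-Glo luminescence of cell growth, so inhibitors register as activators. TDP-43-expressing yeast at OD600=0.02 in galactose medium, after raffinose pregrowth to mid-log, were incubated with compound for 24 hr at 30 deg C.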
Potency is the fitted concentration of half-maximal effect; tags give direction and shape of the fitted curve.

Potency, inactive:
CC1=C([N+](=O)[O-])C(c2ccccc2)NC(=O)N1 (stereo unspecified)
CCCCCCC(=O)N(O)C1CC(=O)N(c2ccc(Br)cc2)C1=O (stereo unspecified)
O=C(NCc1ccncc1)C1CCN(S(=O)(=O)c2cccc(C(F)(F)F)c2)CC1
N#Cc1cnc(SCC(=O)c2ccccc2)nc1N
COc1cccc(NS(=O)(=O)c2ccc3[nH]cc(C(=O)NCCc4ccccc4)c(=O)c3c2)c1
Cc1ccc2oc(=O)c3cnn(CC(=O)N4CCN(c5cc(Cl)ccc5C)CC4)c3c2c1
COc1cccc(NC(=O)c2cc(-c3ccco3)nc3ccccc23)c1
COc1ccc(NC(=O)N(C)C[C@H]2Oc3c(NC(=O)Nc4ccc(C(F)(F)F)cc4)cccc3C(=O)N([C@H](C)CO)C[C@@H]2C)cc1
Cc1cc(NC(=O)COC(=O)c2ccccc2O)no1
CCCn1nnc(NC(=O)c2ccc(-c3cc(Cl)ccc3Cl)o2)n1
COc1ccc(C2=NN(C(=O)c3cccs3)C(c3ccccc3O)C2)cc1 (stereo unspecified)
COc1ccc(-c2cc(C(=O)Nc3ccn(Cc4ccc(C)cc4)n3)no2)cc1OC

Potency, active:
CCOC(=O)Cn1c(CN(Cc2ccccc2)Cc2ccccc2)nc2c1c(=O)n(C)c(=O)n2C 22.4 µM
CCc1nc(SCc2ccc(Cl)cc2)n[nH]1 12.6 µM
O=c1c(Cl)c(Cl)cnn1Cc1ccccc1Cl 35.5 µM
N/C(=N\C(=S)Nc1ccc2c(c1)OCO2)c1ccccc1 20 µM
Cc1cc(C)c2c(-n3cccc3)nn(CC#N)c2n1 12.6 µM
CCOC(=O)/C(C#N)=C/c1c(OCC)n(CC)c2ccccc12 12.6 µM
CC1CC(C)CN(c2nc(N(C)c3ccccc3)nc(N)c2[N+](=O)[O-])C1 (stereo unspecified) 17.8 µM
Cc1cccc(N(CC(=O)NCCSCc2ccc(Cl)cc2)S(C)(=O)=O)c1C 15.8 µM
CCCCOc1ccc(C(=O)N2CCC(c3nc4ccccc4o3)CC2)cc1 28.2 µM
CC1Oc2ccccc2N(CC(=O)c2cccc(Cl)c2)C1=O (stereo unspecified) 15.8 µM
O=C(NC(=S)Nc1ccc(N2CCOCC2)cc1)c1cccc(Cl)c1 15.8 µM
Cc1ccc(Nc2nc(-c3sc(C)nc3C)cs2)cc1 20 µM
O=S(=O)(Nc1ccccc1)c1ccc(-c2cnc(C3CC3)o2)cc1 35.5 µM
O=S(=O)(c1ccccc1F)N1CCC(Oc2ccc(-n3cnnn3)cc2)CC1 20 µM and 12.6 µM
O=c1[nH][nH]c2c1C(c1ccc(F)cc1)OC(CCc1ccccc1)C2 (stereo unspecified) 20 µM
ONC(=Nc1ccccc1)c1ccc(Cl)cc1 12.6 µM

Potency, inconclusive:
O=C(c1ccc(Cl)c(Cl)c1)N1CCC(=O)N(C(COCc2ccccc2)Cc2ccccc2)CC1 (stereo unspecified) 22.4 µM [activator, single point]
C(=N\n1cnnc1)/c1ccc(OC2CSC2)cc1 17.8 µM [activator, single point]
CCN(CC(=O)Nc1ccc(NC(C)=O)cc1)C(=O)/C=C/c1ccc(S(=O)(=O)N2CCCCCC2)cc1 6.31 µM [activator, single point]
Cc1ccc(S(=O)(=O)N2C[C@H]3C(=O)C[C@@H](c4ccccc4)N(S(C)(=O)=O)[C@H]3C[C@H]2c2ccccc2)cc1 35.5 µM [activator, single point]
Cc1c(Cl)cccc1NC(=S)NCC1COc2ccccc2O1 (stereo unspecified) 28.2 µM [activator, single point]
CCCN(CCC)S(=O)(=O)c1ccc(C)cc1 35.5 µM [activator, partial curve, poor fit]
Cn1c(CSc2nc3ccccc3s2)nc2ccccc21 5.62 µM [activator, partial curve]
O=C(O)/C=C/C(=O)Nc1ccc2c(c1)C(=O)c1ccccc1C2=O 11.2 µM [activator, partial curve]
COc1ccc(C(=O)N2CCc3c([nH]c4ccccc34)C2C(F)(F)F)cc1 (stereo unspecified) 6.31 µM [activator, partial curve]
Cc1cccc(N2CCN(C(=O)CCC(=O)N3Cc4ccccc4Oc4ncccc43)CC2)c1C 31.6 µM [activator, single point]
COc1cc(/C=N/NC(=O)c2ccc(N)cc2)ccc1OC(=O)c1cccc(C)c1 11.2 µM [activator, partial curve]
O=C(/C=C/Nc1ccc(F)c(F)c1)c1cccs1 35.5 µM [activator, single point]
COc1ccc(N2CCN(c3c4c(nc5nncn35)CCC4)CC2)cc1 2.51 µM [activator, partial curve, poor fit]
CCN(C(=O)C1CCCCC1)c1nnc(-c2cccnc2)s1 35.5 µM [activator, single point]
COc1ccc(C(C)=O)cc1Cn1cnc2c(cnn2C)c1=O 20 µM [activator, single point]
CCn1c(=NC(=O)CS(=O)(=O)c2ccc(F)cc2)sc2cccc(OC)c21 35.5 µM [activator, single point]
O=C(COCc1cc(-c2cccs2)on1)Nc1cccc(Cl)c1Cl 35.5 µM [activator, single point]
CC(C)N(Cc1nc(-c2ccccc2)no1)C(=O)Cc1ccccc1 20 µM [activator, single point]
Cc1nn(C(=O)COc2ccccc2)c(C)c1Sc1ccccc1 35.5 µM [activator, partial curve]
Oc1ccc(Cc2ccccc2)c2cccnc12 15.8 µM [activator, single point]
Cc1sc2ncnc(Sc3ccccc3C(=O)Nc3ccc(C#N)cc3)c2c1C 17.8 µM [activator, partial curve]
COc1cnn(-c2ccc(C)cc2)c(=O)c1Br 12.6 µM [activator, single point]
O=Cc1s/c(=N\S(=O)(=O)c2ccccc2)n(CCCCl)c1Cl 12.6 µM [activator, single point]
CC(C)(C)c1ccc(Oc2nc3ccccn3c(=O)c2/C=C(\C#N)c2nc3ccccc3[nH]2)cc1 1.41 µM [activator, partial curve]
CC1(C)C(=O)N(c2ccccc2F)C(=O)c2ccccc21 22.4 µM [activator, single point]
COc1ccc(/C=N/NC(=O)COc2ccc3ccccc3c2)c(C(=O)O)c1OC 15.8 µM [activator, single point]
COc1ccc(C(C)(O)c2nc(-c3ccc(OC)nc3)cs2)cc1 (stereo unspecified) 3.55 µM [activator, partial curve, poor fit]
CC1(C)C(=O)OC(c2cc(Br)ccc2O)C(C)(C)C1=O (stereo unspecified) 28.2 µM [activator, partial curve]
Cc1cc(C)c2[nH]c(C(=O)Nc3ccc(F)cc3Br)cc2c1 2.82 µM [activator, full curve, poor fit]
CCC1CCCCN1C(=O)CSc1nnc(-c2ccc(OC)cc2)o1 (stereo unspecified) 15.8 µM [activator, single point]
COc1ccc2cc(C(=O)C3CCCN(C(=O)c4sc(C)nc4C)C3)ccc2c1 (stereo unspecified) 31.6 µM [activator, single point]
COc1ccc(-c2[nH]ncc2N=Nc2cc(C)cc(C)c2)cc1 8.91 µM [activator, full curve, poor fit]
COc1cc(SC)ccc1C(=O)Nc1c(Cl)cncc1Cl 3.98 µM [activator, single point]
Cc1ccc(NS(=O)(=O)c2cccc3cccnc23)c(Cl)c1 7.08 µM [activator, partial curve, poor fit]
Cc1nc(NCc2ccco2)nc2c1C(=O)CC(C)C2 (stereo unspecified) 11.2 µM [activator, partial curve]
Cc1ccc(NC(=S)N(Cc2ccccc2)C(C)C)cc1 11.2 µM [activator, partial curve]
COc1ccccc1OCCNc1cc(N2CCOCC2)ccc1[N+](=O)[O-] 15.8 µM [activator, single point]
COc1ccc(OC)c(CCNC(=O)c2ccc(NC3=NC4CS(=O)(=O)CC4S3)cc2)c1 (stereo unspecified) 2.82 µM [activator, full curve]
N#C/C(=C\c1ccc(F)c(Br)c1)C(=O)NC1CC1 35.5 µM [activator, single point]
O=C(Nc1ccc(Cl)cc1)N[C@H]1CC[C@H](CCn2cc(-c3ccccc3F)nn2)O[C@@H]1CO 0.316 µM [activator, full curve, poor fit]
Cc1ccc(S(=O)(=O)N2CCN(C(=O)CSc3nc4ccccc4o3)C2)cc1 35.5 µM [activator, single point]
CNC(=O)CSc1nnc(-c2cccs2)o1 0.501 µM [activator, full curve, poor fit]

Growth rescue (activation), inconclusive:
COc1ccc(OCC(O)CN2C(=O)c3ccccc3C2=O)cc1 (stereo unspecified) 33.2% [activator]
